Experimental data published in PubChem BioAssay AID686978 (National Center for Advancing Translational Sciences (NCATS), 2013).
“And” between values parts separate entries of the source, which are not always exact repeats. Equal values may be shown once. Among all 420,000 compounds or so, about 64,000 (15%) were called active. The inconclusive results got no clear call from the source; some entries with a clear call stand among them for comparison. Calls come from the whole dose curve; as a rule, active = well fitted inhibition curve with a large enough effect; inconclusive = small, poorly fitted or top-dose-only effect; inactive = flat fitted curve, though single readings scatter. No potency is given beside an inconclusive call; the fits are too rough.

Test: qHTS for Inhibitors of human tyrosyl-DNA phosphodiesterase 1 (TDP1): qHTS in cells in absence of CPT; note: nearly all actives have a fitted effect of over 55% in size
Conditions: DT40 Tdp1-/- hTDP1 cells, no CPT, ATP luminescence, 48 h
Method in brief: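 Growth kinetics read by CellTiter-Glo luminescence after ≥48 hr at 37 °C. Cells: DT40 Tdp1-/- stably carrying human TDP1, 400 per well, compound exposure in the absence of CPT (DMSO vehicle).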

[1] = activity change, negative = growth inhibition: at 46.2 µM (top of the series)
% is set by controls: 0 for no effect and ±100 for the full control effect; potency is the fitted concentration of half-maximal effect; tags give direction and shape of the fitted curve.

C=C(C)Cn1c(-c2cccs2)n[nH]c1=S
Potency [1]: inactive

Cc1ccc(Oc2ccccc2/C=C2\SC(=O)N(C)C2=O)cc1
Potency [1]: inconclusive [inhibitor, partial curve]

COc1ccc(C)cc1N1CC(C(=O)OCc2nc(N)nc(Nc3ccccc3C)n2)CC1=O (stereo not drawn)
activity change, negative = growth inhibition [1]: inconclusive: -32.9% [inhibitor]

COc1ccc(/C=C(/NC(=O)c2ccco2)C(=O)NCc2ccco2)cc1
Potency [1]: inactive

Cc1ccc(N(C)S(=O)(=O)c2cc3c(cc2C)NC(=O)CO3)cc1
Potency [1]: inconclusive [inhibitor, single point]

COc1ccc(NC(=O)N2CCC3(CC2)CCN(S(=O)(=O)c2ccccc2)CC3)cc1
Potency [1]: inconclusive [inhibitor, single point]

Cc1ccc(-n2c(C)cc(/C=N\NC(=O)CC(=O)NC(C)C)c2C)cc1
activity change, negative = growth inhibition [1]: inconclusive: -38% [inhibitor]

O=C(NCC1CCCO1)c1cccnc1NCc1ccc(F)cc1 (stereo not drawn)
Potency [1]: inactive

Cc1cccc(NC(=S)N(CCCN2CCOCC2)Cc2cn(C)c3ccccc23)c1
Potency [1]: inconclusive [inhibitor, single point]

Cc1ccc(-n2nc3c(c2NC(=O)c2ccccc2)CS(=O)(=O)C3)cc1C
Potency [1]: inactive

O=C(Nc1nnc(CSCc2ccc(Cl)cc2)s1)c1cccc([N+](=O)[O-])c1
Potency [1]: inconclusive [inhibitor, single point]

S=C(Cc1ccc(-c2ccccc2)cc1)N1CCOCC1
Potency [1]: inactive

CCCCn1c(SCC(=O)c2ccccc2)nc2ccsc2c1=O
Potency [1]: active: 18.4 µM

CCOC(=O)N1CCN(C(=O)C2CCCN(c3ncnc4c3sc3cccc(F)c34)C2)CC1 (stereo not drawn)
Potency [1]: active: 6.51 µM

Cc1c(C)c2cc3c4c(oc3c(C)c2oc1=O)CCCC4
Potency [1]: inconclusive [inhibitor, single point]

Cc1cc(C)nc(Nc2nc(-c3ccccc3)cs2)n1
Potency [1]: inconclusive [inhibitor, single point]

O=C(CC1C(=O)NCCN1Cc1ccc(Cl)c(F)c1)NC1CCCCC1 (stereo not drawn)
Potency [1]: inactive

O=C(O)c1nn2c(C(F)(F)F)cc(-c3cccs3)nc2c1Cl
Potency [1]: inconclusive [inhibitor, partial curve, poor fit]

CCN(CC)S(=O)(=O)c1cccc(C(=O)/C=C2/N(C)c3ccccc3C2(C)C)c1
Potency [1]: active: 14.6 µM

COc1ccc(C(=O)NCC(c2ccc3c(c2)OCO3)N2CCOCC2)cc1 (stereo not drawn)
Potency [1]: inconclusive [inhibitor, single point]

Cc1ccc(CN2C(=O)c3ccccc3Sc3ccc(C(=O)NCc4ccco4)cc32)cc1
activity change, negative = growth inhibition [1]: inconclusive: -33.6% [inhibitor]

O=C1CC(c2cccc(Cl)c2)CC(O)=C1C=Nc1ccccc1 (stereo not drawn)
Potency [1]: inconclusive [inhibitor, single point]

O=C(NCc1n[nH]c(=S)n1-c1ccc([N+](=O)[O-])cc1)c1ccc(S(=O)(=O)N2CCOCC2)cc1
Potency [1]: inactive

C=CCC1(CC=C)CCCN1C(=O)C1CCC(=O)N(CCc2ccc(OC)cc2)C1 (stereo not drawn)
Potency [1]: active: 10.3 µM

OC(CN1CCN(Cc2ccccc2)CC1)Cn1c2ccccc2c2ccccc21 (stereo not drawn)
Potency [1]: inconclusive [inhibitor, single point]

O=C(Cn1cnc2c(OCc3ccccc3)ncnc21)NCc1ccccc1
Potency [1]: active: 16.4 µM

NC(=Nc1c([N+](=O)[O-])cnc2ccccc12)N1CCOCC1
Potency [1]: inactive

O=C(C1CCC(Cn2c(=S)[nH]c3ccccc3c2=O)CC1)N1CCOCC1 (stereo not drawn)
Potency [1]: inactive

CNCc1ccccc1Sc1ccc(O)c(O)c1
Potency [1]: active: 4.11 µM

CCN(C(=O)C1CCC(CNS(=O)(=O)c2cccc3nsnc23)CC1)c1ccccc1 (stereo not drawn)
Potency [1]: active: 23.1 µM

c1ccc(CCn2nnnc2C(c2cccs2)N2CCN(Cc3ccc4c(c3)OCO4)CC2)cc1 (stereo not drawn)
Potency [1]: active: 23.1 µM

O=C(CSc1nnc(COc2ccccc2)o1)N1CCN(c2ccccc2)CC1
Potency [1]: inconclusive [inhibitor, partial curve, poor fit]

CCCCCCn1cc(CN2CC(N3CCN(Cc4cccc(C)c4)CC3)CS2(=O)=O)nn1 (stereo not drawn)
Potency [1]: active: 23.1 µM

Cn1nnnc1SCC(=O)Nc1nc(-c2ccc(F)c(F)c2)cs1
Potency [1]: inconclusive [inhibitor, partial curve]

O=C1NC(=O)C(=CC=Cc2ccccc2)S1
Potency [1]: inconclusive [inhibitor, partial curve]

COc1cccc(/C=C(\C#N)c2nc3ccccc3[nH]2)c1OCC(=O)O
Potency [1]: inactive

CCOC(=O)C1(CCCc2ccccc2)CCN(C(=O)CN2C(=O)CSC2=O)CC1
Potency [1]: inconclusive [inhibitor, single point]

CC1(C)COC(c2ccc(F)c([N+](=O)[O-])c2)=N1
Potency [1]: active: 16.4 µM

CC(C)OC(=O)/C(C#N)=C/c1cn(Cc2ccccc2)c2ccccc12
Potency [1]: inconclusive [inhibitor, partial curve]

O=C(Cc1ccc(NC(=O)N2CCSc3ncccc32)cc1)NCc1ccccc1
Potency [1]: inconclusive [inhibitor, single point]

CCn1c(=O)c2c(nc3n2CCN3c2ccccc2)n(C)c1=O
Potency [1]: inconclusive [inhibitor, single point]

CN(CCc1ccccc1)C(=O)c1cccc(NC(=O)Cc2cccc(NC(=O)C3CCCN(C(=O)C4CCC4)C3)c2)c1 (stereo not drawn)
Potency [1]: inconclusive [inhibitor, single point]

CN(C)CCOC(c1ccc(Cl)cc1)c1ccccn1 (stereo not drawn)
activity change, negative = growth inhibition [1]: inconclusive: -35% [inhibitor] | activity change, negative = growth inhibition (at 46.2 µM (top of the series)): inactive: -16.6% and inactive: -16.5% and inactive: -8.45%

O=C(O)c1cccc2c1/C(=N/O)c1ccccc1-2
activity change, negative = growth inhibition [1]: inconclusive: -32.2% [inhibitor]

O=C(CSc1nc(=O)n2ccccc2n1)N1CCCc2ccccc21
Potency [1]: inactive

Cc1cc(C)cc(NS(=O)(=O)c2ccc(-c3cnc(C4CC4)o3)cc2)c1
Potency [1]: active: 0.82 µM

S=C(NCCN1CCOCC1)N/N=C/c1cccs1
Potency [1]: active: 4.11 µM
